In all, about 110,000 compounds were measured (“z-score”: median about -0.1, highest 2% from about 2 on). This is one part of the list. Calls of active or inactive are those of the source.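 How the source made its calls: active means z-score in the third read window above 3 or below -3; inactive means the rest.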

This experiment deals with Metabotropic glutamate receptor 8 (Rattus norvegicus) (UniProt P70579). Kind of experiment: mGluR8 Gi/Go-coupled signaling modulation – cell-based, rat, thallium flux, HTS, primary screen (AID 488969). Conditions: HEK293 rat mGluR8, GIRK (G protein-gated inwardly rectifying potassium channel) thallium flux, FluoZin2; at 10 µM; stronger effect = higher value; submaximal glutamate (EC20) added with thallium.
Chain of UniProt P70579 (P70579 whole entry, looked up): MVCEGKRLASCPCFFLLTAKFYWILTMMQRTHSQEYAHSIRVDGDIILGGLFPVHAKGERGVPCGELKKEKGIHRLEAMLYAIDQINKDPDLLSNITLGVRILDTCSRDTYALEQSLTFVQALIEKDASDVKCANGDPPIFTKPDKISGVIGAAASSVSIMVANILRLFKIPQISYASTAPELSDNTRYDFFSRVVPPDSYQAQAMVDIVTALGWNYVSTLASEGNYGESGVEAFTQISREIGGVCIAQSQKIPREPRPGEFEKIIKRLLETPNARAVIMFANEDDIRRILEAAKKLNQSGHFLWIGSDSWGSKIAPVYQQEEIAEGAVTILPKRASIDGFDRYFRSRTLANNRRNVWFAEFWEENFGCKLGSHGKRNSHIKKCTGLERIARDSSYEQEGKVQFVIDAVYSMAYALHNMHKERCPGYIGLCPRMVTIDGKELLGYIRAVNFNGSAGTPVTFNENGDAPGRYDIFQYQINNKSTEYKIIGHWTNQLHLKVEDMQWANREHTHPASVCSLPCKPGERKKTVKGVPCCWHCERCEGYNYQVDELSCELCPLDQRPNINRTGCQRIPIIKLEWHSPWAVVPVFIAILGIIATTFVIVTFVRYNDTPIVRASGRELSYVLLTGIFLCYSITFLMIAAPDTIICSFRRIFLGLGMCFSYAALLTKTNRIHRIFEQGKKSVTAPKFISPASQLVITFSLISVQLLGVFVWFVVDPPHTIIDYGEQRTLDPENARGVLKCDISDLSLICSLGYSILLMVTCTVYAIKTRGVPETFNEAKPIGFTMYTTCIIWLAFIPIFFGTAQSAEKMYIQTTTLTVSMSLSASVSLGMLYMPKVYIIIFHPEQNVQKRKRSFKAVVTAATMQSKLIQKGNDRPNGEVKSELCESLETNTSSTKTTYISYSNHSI
As to `Cc1[nH]nc2nc3c(c(OC(=O)c4ccccc4)c12)c(=O)n(C)c(=O)n3C`, the z-score is -0.408.
The same measure for `O=c1nc(-c2ccccc2)n(-c2ccc(Cl)cc2)[nH]1`: -0.238.
The same measure for `CC1CC(C)CN(C(=O)Cn2c(=O)n(CCCCC(=O)NC3CCCC3)c(=O)c3ccccc32)C1` (centres undefined): -1.26.
In the case of `COc1ccc(-n2c(=S)[nH]c3cc(C(=O)NCc4ccco4)ccc3c2=O)c(OC)c1`, the z-score was 0.0806.
With `Cc1c(C)[n+](=O)c2c(n1[O-])CCC2` the figure was active: 14.6.
With `Cc1ccccc1N=C(NOCc1ccc(Cl)cc1Cl)c1nonc1N` the figure was -0.307; with `COc1ccc(N2C(=O)CC(n3cnc4ccccc43)C2=O)cc1` (centres undefined), 1.09.
`CC1(C)CC(=O)N(CC(=O)NC2CCCC2)c2ccccc2S1(=O)=O`: the z-score was -0.29.
On to `CCCCNS(=O)(=O)C1CCS(=O)(=O)C1` (centres undefined), for which the z-score is -0.314.
With `CCN1CCN(C(=O)CN(c2cc(OC)ccc2OC)S(C)(=O)=O)CC1` the figure was -0.0515.
`O=S(=O)(c1cccc(S(=O)(=O)N2CCC(N3CCCCC3)CC2)c1)N1CCOCC1` had a z-score of 0.0498.
With `COc1ccc2cc(C(=O)O)ccc2c1` the figure was 0.101; with `Cc1ccc(C)n1-c1ccc2c(c1)COC2=O`, -0.0138.
The same measure for `O=C(OCC(=O)N1CCN(C(=O)c2ccco2)CC1)c1sc2ccccc2c1Cl`: -0.258.
Compound `N#C/C(=C\c1ccc(N2CCCCC2)o1)C(=O)Nc1cccc(Br)c1` returned a z-score of -0.473.
The compound `Fc1cccc(NC(=S)NCC(c2cccnc2)N2CCOCC2)c1` (centres undefined) displayed a z-score of -0.0414.
With `COC(=O)/C=c1/s/c(=C(\C#N)C(=O)NCc2ccco2)n(-c2ccccc2)c1=O` the figure was -0.539.
Compound `Cc1ccc(C)c(S(=O)(=O)N2CC(=O)Nc3ccccc32)c1` had a z-score of 0.126.
In the case of `Cc1ccccc1Cn1c(=O)n(CCC(=O)NCc2ccc3c(c2)OCO3)c(=O)c2ccccc21`, the z-score is -0.0654.
Take `NS(=O)(=O)c1ccc(CCNc2nc3c(-c4cccc(F)c4)nnn3c3ccccc23)cc1`: the z-score was 0.0566.
For the compound `CCOC(=O)C1CCCN(CC(=O)NC2=Nc3ccccc3N=C(C)C2c2ccccc2)C1` (centres undefined), the z-score is 0.427.
`O=S(=O)(Cc1cc(Sc2ccc(Cl)cc2)nc(-c2ccccc2)n1)c1ccccc1` had a z-score of 0.0909.
The same measure for `C/C(=N\OC(=O)NC(C)C)c1sc(-c2ccccc2)nc1C`: -1.52; for `COc1cccc(COc2cc3ccccc3nc2C)c1`: -0.215; for `Cc1sc(NC(=O)c2sc3nc4c(C)cccc4cc3c2N)c(C#N)c1C`: 2.37.
With `Clc1ccc2nc(CN3CCCCCC3)cn2c1` the figure was 0.0366; with `CN1CCc2c(c3ccccc3n2Cc2ccccc2)C1`, 1.56.
In turn, `CCCCOC1(c2ccccc2)OC(=O)c2ccccc21` (centres undefined) displayed a z-score of -0.271.
The compound `O=C(/C=C/c1ccc(Cl)cc1Cl)N(Cc1ccc(Cl)cc1)C1CCS(=O)(=O)C1` (centres undefined) yielded a z-score of -0.159.
The same measure for `COc1ccc(NC(=O)C2CC(=O)n3cnnc3S2)cc1` (centres undefined): -0.313; for `CCOC(=O)c1ccc(NC(=O)CCNC(=O)c2ccc([N+](=O)[O-])cc2)cc1`: -0.327.
With `COc1ccc(C2c3sc(=O)[nH]c3SC3C(=O)N(c4ccccc4)C(=O)C32)cc1` (centres undefined) the figure was -1.53; with `CCOC(=O)COc1cc(=O)n(CC)c2ccccc12`, -0.407.
Take `COCCn1nnnc1C(c1ccccc1Cl)N1CCN(c2ccccc2OC)CC1` (centres undefined): the z-score is 0.107.
With `O=C(Cn1cnc2c(nnn2Cc2ccccc2)c1=O)c1ccc(Cl)cc1` the figure was 0.494.
With `CCNC(=O)CC1C(=O)N(c2ccc(C)cc2)C(=O)N1Cc1ccccn1` (centres undefined) the figure was -0.176; with `COc1ccc(C(C)=O)cc1COc1ccc(-n2cnnn2)cc1`, 0.111; with `COc1ccc(CCC(C)NC2C3CC4CC(C3)CC2C4)cc1` (centres undefined), 1.2.
Regarding `CC(C)Cn1c(N)c(C(=O)COC(=O)C2=COCCO2)c(=O)n(C)c1=O`, the z-score is -0.345.
With `COc1ccc(CCN2C(=O)NC(NC(=O)C(C)(C)C)(C(F)(F)F)C2=O)cc1OC` (centres undefined) the figure was 0.191.
The same measure for `CC(C)(C)n1ncc2c(=O)n(CC(=O)NCCc3ccccc3)cnc21`: 0.00527; for `Cc1ccc(NC(=O)COC(=O)Cc2ccsc2)cc1S(=O)(=O)N1CCOCC1`: -0.186; for `Cn1c(SCC(=O)c2ccccc2F)nnc1C1CC1`: -0.74.
The same measure for `COc1ccc(-c2cccc(C(=O)Nc3ccccc3C)c2)cc1`: -0.124; for `COc1cc(Cl)c(S(=O)(=O)NCc2cccnc2)cc1Cl`: -0.443; for `CC(C)NC(=O)c1onc(CSc2ccc(C(C)C)cc2)c1C(=O)O`: -0.825.
On to `COc1ccc(NC(=O)NCCN2CCc3ccccc3C2)cc1`, for which the z-score is 0.0313.
The same measure for `CCCn1c(N)c(C(=O)CSc2nc(C)cs2)c(=O)[nH]c1=O`: -0.279; for `O=C(c1ccc(-c2ccccc2)cc1)c1ccccc1C(=O)N1CCOCC1`: -0.412; for `COCCNc1cc(C)nc2c(-c3ccccc3OC)c(C)nn12`: 0.529.
The compound `Cc1ccc(OCCN2CCN(CC(O)Cn3c4ccccc4c4ccccc43)CC2)cc1` (centres undefined) yielded a z-score of 0.113.
Consider `CC(C)c1nc2oc3c(=O)[nH]cnc3c2c2c1CCC2`, for which the z-score is -0.382.
Take `O=C(NCc1cccnc1)c1cc(-c2ccccc2)on1`: the z-score is -0.456.
With `CCOC(=O)Cc1nnc(NC(=O)COc2ccc(OC)cc2)s1` the figure was 0.347; with `Cc1ccccc1Nc1nnc(SCC(=O)NCc2ccco2)s1`, 0.00959.
With `Cc1cc(C)c2c(n1)nn1c(N3CCN(c4ccccc4C)CC3)cc(C)nc21` the figure was 0.339.
The same measure for `O=C(Nc1ccc(Cl)c(Cl)c1)c1cccc(S(=O)(=O)NCc2cccnc2)c1`: 0.107; for `CC(=O)NC1C(=O)Nc2c(C)cc(C)cc21` (centres undefined): -0.157; for `CN1CCN(C(=O)/C(=C\c2ccccc2)c2ccccc2)CC1`: -1.59.
For `Cc1ccc(N=C(NO)c2nonc2N)cc1`, the z-score is -1.5.
The same measure for `COc1cccc(CC(=O)Nn2c(C)nc3ccccc3c2=O)c1`: -0.115.
With `COC(=O)CCSc1cc([N+](=O)[O-])cc2c1c(C1OCCO1)nn2-c1ccccc1` the figure was -1.05; with `Cc1nn(Cc2ccc(F)cc2)c(Cl)c1/C=N/NC(=O)c1cccnc1`, 0.00317; with `Cc1ccc(NC(=O)c2nc(C)n(-c3ccc([N+](=O)[O-])cc3)n2)cc1`, -0.152.
With `COCCn1c(=S)[nH]c2cc(C(=O)NCCCN3CCOCC3)ccc2c1=O` the figure was -0.168; with `COc1ccc(-c2nc(-c3ccc(NC(=O)c4ccncc4)cc3)no2)cc1OC`, -0.932; with `Cc1cc(S(=O)(=O)NCC(C)C)ccc1OCC(=O)NCC1CCCO1` (centres undefined), -0.457.
The compound `CCN1CCN(C(=O)CN(c2ccc(C)cc2)S(C)(=O)=O)CC1` registered a z-score of -0.355.
The same measure for `CCCCC(=O)NCCNc1nc2c(c(=O)n(C)c(=O)n2C)n1Cc1ccc(F)cc1`: 0.238; for `CC(C)CC(=O)NC(=S)Nc1cccc(NC(=O)c2ccccc2)c1`: -0.194; for `COc1ccc(OC)c(N(CC(=O)Nc2cccnc2)S(=O)(=O)c2ccc(OC)c(OC)c2)c1`: 0.28.
The same measure for `Cc1ccsc1C(=O)Nc1cc(C(C)(C)C)nn1-c1ccccc1`: -1.34; for `Cc1ccc(OCC(=O)N/N=C\c2cn(C)c3ccccc23)c([N+](=O)[O-])c1`: -0.107.
With `CCOC(=O)N1CCC(NC(=O)C2CCCN(c3nc4ccccc4o3)C2)CC1` (centres undefined) the figure was 0.0747.
Compound `CN(C)c1cccc(C(=O)OC(C(=O)Nc2ccc([N+](=O)[O-])cc2Br)c2ccccc2)c1` (centres undefined) had a z-score of -0.391.
As for `CCOC(=O)N1CCN(CC(O)COc2c(C)cccc2C)CC1` (centres undefined), the z-score amounted to 0.957.
As to `Cc1nn(C)c(Oc2ccccc2)c1CCNS(=O)(=O)c1ccc(Cl)cc1`, the z-score was -0.479.
The same measure for `CCc1nnc(NC(=O)CCC(=O)NCCc2ccc(OC)c(OC)c2)s1`: -0.413.
Turning to `CN1CCOCCOCCN(C)C(=O)N2CCOCCOCCN(CCOCC2)C1=O`, the z-score amounted to 1.25.
In turn, `CCCCCn1c(=O)c(C(=O)c2ccccc2)nc2ccccc21` gave a z-score of -0.844.
The same measure for `O=C(Nc1cc(S(=O)(=O)N2CCOCC2)ccc1Cl)C(=O)c1c(-c2ccccc2)cc2ccccn12`: -0.587; for `COc1cccc(NC(=O)c2ncn[nH]2)c1`: -0.079; for `Cc1cccc(C=Nc2ccc3c4c(cccc24)CC3)c1O`: 0.463.
The compound `O=c1cc(N2CCCCC2)c(-c2ccccc2)nn1Cc1ccccc1Cl` registered a z-score of 0.0687.
With `O=C(NCC1CCCO1)C1CC(=O)N(c2ccc(F)c(Cl)c2)C1` (centres undefined) the figure was 0.118.
For `CCOc1ccc(S(=O)(=O)N2CCc3ccccc3C2)cc1`, the z-score came to 0.0269.
`CCc1nnc(NC(=O)c2cc3c(s2)CCCCC3)s1` displayed a z-score of 0.127.
`O=C(OCc1ccccc1)c1ccc2c(c1)-c1ccccc1C2=O` came in with a z-score of 0.088.
With `Cc1nnc(SCC(=O)Nc2ccc(N3CCOCC3)cc2)o1` the figure was 0.17; with `C=CCn1cc(/C=N\NC(=O)c2cc3c(ccc4ccccc43)o2)c2ccccc21`, -0.0727; with `CCCn1nnnc1NC(=O)COc1ccc(CC)cc1`, 0.101.
With `CCCCNC(=S)N(C)/N=C/c1c(F)cccc1F` the figure was -0.077; with `O=C(O)CCN1C(=O)c2ccc(NC(=O)CSCc3ccccc3)cc2C1=O`, -0.13; with `OCCOCCn1c2ccccc2c2ccccc21`, -0.0322.
Compound `CC(C)c1cccc(C(C)C)c1NC(=O)c1ccc(OCC(=O)NCc2ccccc2)cc1` displayed a z-score of -0.175.
In turn, `c1ccc(-c2noc(C34CC5CC(CC(C5)C3)C4)n2)nc1` yielded a z-score of 0.61.
Regarding `O=C(NN=C1c2ccccc2-c2ccccc21)c1cccc(Br)c1`, the z-score was active: 4.19.
Compound `CCCOc1ccc(C2C(=O)N(C3CCCCC3)CC(=O)N2CCC)cc1OC` (centres undefined) displayed a z-score of -0.518.
On to `O=C(Nc1ccncc1)C1COc2ccccc2O1` (centres undefined), for which the z-score is 0.407.
The same measure for `O=C(Cc1coc2ccc3ccccc3c12)N1CCc2ccccc21`: -0.198; for `CCOC(=O)CC(=O)Nc1ccc(C(=O)OCC)cc1`: 0.497; for `O=C(Cn1cccc1C(=O)c1ccccc1)NCc1cccnc1`: -1.16.
With `Cc1ccc(S(=O)(=O)N2CCCN(S(=O)(=O)c3ccc(C)c(C)c3)CC2)cc1C` the figure was -0.0969; with `Cn1nccc1C(=O)NC(=S)Nc1sc2c(c1C#N)CCCCC2`, -0.67; with `CN(C)S(=O)(=O)c1ccc(NC(=O)Cn2c(-c3ccccc3)noc2=O)cc1`, 0.954.
With `Cc1ccc(C(=O)N/C(=C/c2cccs2)C(=O)N2CCCCCC2)cc1` the figure was -0.312; with `COc1ccc(-c2nnc3ccc(SCC(=O)Nc4nccs4)nn23)cc1OC`, -0.661; with `CC(=O)CS(=O)(=O)c1ccc(Oc2ccc(S(=O)(=O)CC(C)=O)cc2)cc1`, 0.562.
Turning to `Cc1ccc(C2c3c(oc4ccccc4c3=O)C(=O)N2c2nnc(C)s2)o1` (centres undefined), the z-score is -0.281.

(Values after PubChem BioAssay AID488969 (Vanderbilt High Throughput Screening Facility, 2010).)
